Compound in the experiment: CC1Cc2ccccc2N1C(=O)C1CCCN(C1)C(=O)CCl (mixture of isomers) [TRIM25 ligand 11 (diastereomer mixture)]
As to the kind of experiment: probe-labelled cysteine peptide fold change vs DMSO (competition) (log2 fold change); higher = less target engagement (more negative = stronger competition). The conditions noted are these: THP-1, incubation time: 4 h.

About 21,000 targets were measured; listed, in parts, are those with the largest changes and a random draw of the rest.
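Further: competitive chemoproteomic profiling in live THP-1 cells with an iodoacetamide desthiobiotin (IA-DTB) probe, comparing probe-labelled peptide intensities in compound-treated cells against DMSO-treated controls.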

For the target “GRIN2C_Q14957_1011_TGHCGR (UniProt Q14957)”, the “probe-labelled cysteine peptide fold change” value reads like this: (10 µM) 0.454; (50 µM) 0.879.

Regarding “GARS_P41250_471_SCYDLSCHAR (UniProt P41250)”, the “probe-labelled cysteine peptide fold change” value is 0.0402 (10 µM) and -0.161 (50 µM).

Regarding “GYS1_P13807_564+575_SLDDSCSQLTSFLYSFCQQSR (UniProt P13807)”, the “probe-labelled cysteine peptide fold change” value is, setting by setting: (10 µM) -0.386; (50 µM) -0.281.

For the target “GMPS_P49915_554_MCHNVNR (UniProt P49915)”, the “probe-labelled cysteine peptide fold change” value reads like this: (10 µM) -0.0349; (50 µM) 0.0313.

As for “HDAC1_Q13547_12_VCYYYDGDVGNYYYGQGHPMK (UniProt Q13547)”, the “probe-labelled cysteine peptide fold change” value runs as follows: (10 µM) 0.0854; (50 µM) 0.0775.

In the case of “HELZ_P42694_101_AVLCCMQLK (UniProt P42694)”, the “probe-labelled cysteine peptide fold change” value is -0.0684 (10 µM) and 0.0429 (50 µM).

For the target “GSS_P48637_409_IEPEPFENCLLR (UniProt P48637)”, the “probe-labelled cysteine peptide fold change” value reads like this: (10 µM) 0.0626; (50 µM) 0.0486.

As to “GNPTG_Q9UJJ9_245_TPEENEPTQLEGGPDSLGFETLENCR (UniProt Q9UJJ9)”, the “probe-labelled cysteine peptide fold change” value runs as follows: (10 µM) 0.0339; (50 µM) 0.0562.

For the target “GSN_P06396_215_ATEVPVSWESFNNGDCFILDLGNNIHQWCGSNSNRYER (UniProt P06396)”, the “probe-labelled cysteine peptide fold change” value by setting is: (10 µM) -0.0631; (50 µM) 0.235.

As for “GOLGB1_Q14789_2664_IAELEEELVCVQK (UniProt Q14789)”, the “probe-labelled cysteine peptide fold change” value reads like this: (10 µM) 0.0828; (50 µM) -0.0438.

On to “HSD17B4_P51659_455_ELICHNQFSLFLVGSGGFGGK (UniProt P51659)”, for which the “probe-labelled cysteine peptide fold change” value was 0.131 (10 µM) and 0.277 (50 µM).

For the target “HDHD3_Q9BSH5_243_EHILPSLAHLLPALDCLEGSTPGL (UniProt Q9BSH5)”, the “probe-labelled cysteine peptide fold change” value is, setting by setting: (10 µM) 0.101; (50 µM) -0.0387.

Take “HMOX2_P30519_282_GALEGSSCPFR (UniProt P30519)”: the “probe-labelled cysteine peptide fold change” value is -0.251 (10 µM) and -0.941 (50 µM).

As to “GIT2_Q14161_34+35_GTFLCDECCSVHR (UniProt Q14161)”, the “probe-labelled cysteine peptide fold change” value is, setting by setting: (10 µM) -0.155; (50 µM) -0.565.

Regarding “HECTD4_Q9Y4D8-5_230_ENAAAALVALACAR (UniProt Q9Y4D8)”, the “probe-labelled cysteine peptide fold change” value was -0.00496 (10 µM) and 0.117 (50 µM).

As for “HMGB1P1_B2RPK0_23_MSSYAFFVQTCR<|>HMGB1_P09429_23_MSSYAFFVQTCR<|>HMGB2_P26583_23_MSSYAFFVQTCR (UniProt P26583+P09429+B2RPK0)”, the “probe-labelled cysteine peptide fold change” value was -0.212 (10 µM) and -0.58 (50 µM).

Take “HDGF_P51858_12_CGDLVFAK (UniProt P51858)”: the “probe-labelled cysteine peptide fold change” value is -0.108 (10 µM) and -0.28 (50 µM).

Take “GANAB_Q14697_502_DGSDYEGWCWPGSAGYPDFTNPTMR (UniProt Q14697)”: the “probe-labelled cysteine peptide fold change” value (10 µM) was -0.0552 and the “probe-labelled cysteine peptide fold change” value (50 µM) was -0.169.

As for “GNE_Q9Y223_520_TPLSDTLHLPVWVDNDGNCAALAER (UniProt Q9Y223)”, the “probe-labelled cysteine peptide fold change” value was 0.0702 (10 µM) and -0.106 (50 µM).

“HPF1_Q9NWY4_60_FCEELDPEK (UniProt Q9NWY4)”: the “probe-labelled cysteine peptide fold change” value reads like this: (10 µM) 0.0355; (50 µM) 0.151.

On to “GLE1_Q53GS7_39_REDVLEECMSLPK (UniProt Q53GS7)”, for which the “probe-labelled cysteine peptide fold change” value runs as follows: (10 µM) 0.0139; (50 µM) -0.124.

Turning to “GNB1_P62873_271_ADQELMTYSHDNIICGITSVSFSK (UniProt P62873)”, the “probe-labelled cysteine peptide fold change” value was 0.0202 (10 µM) and 0.0391 (50 µM).

On to “GPX1_P07203_78_GLVVLGFPCNQFGHQENAKNEEILNSLK (UniProt P07203)”, for which the “probe-labelled cysteine peptide fold change” value is -0.92 (10 µM) and -0.442 (50 µM).

“GFM1_Q96RP9_153_VLDGAVLVLCAVGGVQCQTMTVNR (UniProt Q96RP9)”: the “probe-labelled cysteine peptide fold change” value by setting is: (10 µM) -0.637; (50 µM) 0.0473.

Consider “HEATR3_Q7Z4Q2_171+173_NSIENIANETVNVLWNICECSSR (UniProt Q7Z4Q2)”, for which the “probe-labelled cysteine peptide fold change” value reads like this: (10 µM) -0.112; (50 µM) 0.755.

As for “GMPR2_Q9P2T1_205_TGVGYPQLSAVMECADAAHGLK (UniProt Q9P2T1)”, the “probe-labelled cysteine peptide fold change” value reads like this: (10 µM) -0.00564; (50 µM) -0.0221.

As to “GOT2_P00505_295_VGAFTMVCK (UniProt P00505)”, the “probe-labelled cysteine peptide fold change” value by setting is: (10 µM) 0.0495; (50 µM) 0.216.

“HSPA9_P38646_608_VEAVNMAEGIIHDTETKMEEFKDQLPADECNK (UniProt P38646)”: the “probe-labelled cysteine peptide fold change” value (10 µM) was -1.22 and the “probe-labelled cysteine peptide fold change” value (50 µM) was -0.701.

For the target “GAR1_Q9NY12_86_VVLLGEFLHPCEDDIVCK (UniProt Q9NY12)”, the “probe-labelled cysteine peptide fold change” value (10 µM) is 0.0888 and the “probe-labelled cysteine peptide fold change” value (50 µM) is -0.0822.

With “GMFG_O60234_87+96_YVHDDGRVSYPLCFIFSSPVGCKPEQQMMYAGSK (UniProt O60234)”, the “probe-labelled cysteine peptide fold change” value was -0.461 (10 µM) and -0.539 (50 µM).

For the target “GHDC_Q8N2G8_502_AALAACPSSPFPPAMPR (UniProt Q8N2G8)”, the “probe-labelled cysteine peptide fold change” value by setting is: (10 µM) -0.201; (50 µM) -0.832.

On to “HARS_P12081_379_VPCVGLSIGVER (UniProt P12081)”, for which the “probe-labelled cysteine peptide fold change” value is, setting by setting: (10 µM) -0.14; (50 µM) 0.116.

In the case of “HTATIP2_Q9BUP3_90_NVNQEVVDFEKLDDYASAFQGHDVGFCCLGTTR (UniProt Q9BUP3)”, the “probe-labelled cysteine peptide fold change” value by setting is: (10 µM) -0.181; (50 µM) 0.13.

On to “GATD1_Q8NB37_179_DSGACFSASEPDAVHVVLDR (UniProt Q8NB37)”, for which the “probe-labelled cysteine peptide fold change” value runs as follows: (10 µM) 0.0266; (50 µM) -0.265.

Take “HSF1_Q00613_373+378_CLSVACLDK (UniProt Q00613)”: the “probe-labelled cysteine peptide fold change” value was -0.0719 (10 µM) and -0.31 (50 µM).

For the target GPC3_P51654_72_GPTCCSR (UniProt P51654), the “probe-labelled cysteine peptide fold change” value reads like this: (10 µM) -0.00502; (50 µM) 0.159.

For the target “GMFG_O60234_87+96_VSYPLCFIFSSPVGCKPEQQMMYAGSK<|>GMFB_P60983_87+96_VSYPLCFIFSSPVGCKPEQQMMYAGSK (UniProt P60983+O60234)”, the “probe-labelled cysteine peptide fold change” value runs as follows: (10 µM) -0.313; (50 µM) -0.29.

For the origin of these results see the supplement of paper PMC12067093, “Discovery and optimisation of a covalent ligand for TRIM25 and its application to targeted protein ubiquitination” (Chemical Science, 2025).
